Data taken from the supplement of paper PMC9446081.
The whole screen tested about 39,000 compounds, of which about 220 (0.56%) showed activity. The list shows a part of the results.

System: Escherichia coli K-12 BW25113
Test: relative growth (OD600 normalised to plate interquartile mean) (fraction); higher = less growth inhibition, active = 0.2 or less
Settings: 50 µM; LB; incubation time: overnight (16-24 h)
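Further: static incubation at 37 °C against the wild-type strain, values averaged over two biological replicates.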

Row | SMILES | relative growth
1 | COc1cccc(NC(=O)N(C)C[C@@H]2Oc3ncc(C#Cc4ccncc4)cc3C(=O)N([C@@H](C)CO)C[C@H]2C)c1 | inactive: 0.99
2 | CCc1nc2ccc(C(=O)N3CCN(S(=O)(=O)CC)CC3)cn2c1N(CC)C(=O)NCCc1ccccc1 | inactive: 0.987
3 | C[C@@H]1CN([C@@H](C)CO)C(=O)c2cc(NC(=O)C3CCCCC3)ccc2O[C@@H](C)CCCCO[C@@H]1CN(C)C(=O)Nc1ccccc1 | inactive: 1.02
4 | CS(=O)(=O)CCCCN=C=S | inactive: 0.902
5 | C[C@H](CO)N1C[C@H](C)[C@@H](CN(C)Cc2ccc3c(c2)OCO3)OCCCC[C@H](C)Oc2ccc(NS(=O)(=O)c3ccccc3)cc2C1=O | inactive: 1.04
6 | CO[C@@H]1CN(C)C(=O)c2cc(NC(=O)C3CC3)ccc2OC[C@H](C)N(C(=O)Cc2ccccn2)C[C@H]1C | inactive: 1.04
7 | CC(C)NC(=O)N(C)C[C@@H]1OCCCC[C@@H](C)Oc2ccc(NC(=O)Nc3ccc(C(F)(F)F)cc3)cc2C(=O)N([C@@H](C)CO)C[C@@H]1C | inactive: 0.999
8 | C[C@@H]1CCCCO[C@@H](CN(C)Cc2ccc3c(c2)OCO3)[C@H](C)CN([C@@H](C)CO)C(=O)c2cc(NC(=O)Nc3ccccc3)ccc2O1 | inactive: 1.02
9 | C[C@@H]1CN([C@H](C)CO)C(=O)Cc2cc(NC(=O)CCN3CCOCC3)ccc2O[C@H]1CN(C)S(=O)(=O)c1ccc(Cl)cc1 | inactive: 1.02
10 | C[C@@H]1CN([C@H](C)CO)C(=O)c2cccc(NC(=O)C3CCOCC3)c2O[C@@H]1CN(C)C(=O)NC1CCCCC1 | inactive: 1.02
11 | CC(C)C[C@@H]1NC(=O)[C@@H]2C[C@H](C(=O)NCCCC[N+](C)(C)C)[C@H](c3cccc(OCCO)c3)N2C1=O | inactive: 1.02
12 | C[C@@H]1CN([C@H](C)CO)C(=O)c2cc(/C=C/c3ccccc3)cnc2O[C@@H]1CN(C)C(=O)C1CCOCC1 | inactive: 0.996
13 | CC(C)(C)[S@@](=O)N1Cc2cc3nc(-c4cccc(Br)c4)c2[C@H]1CCOC(=O)c1cc2c(c(-c4cccc(Br)c4)n1)[C@@H](CCOC3=O)N([S@](=O)C(C)(C)C)C2 | inactive: 1.02
14 | C[C@@H]1CCCCO[C@@H](CN(C)C(=O)Nc2ccccc2)[C@H](C)CN([C@@H](C)CO)C(=O)c2cc(NC(=O)Cc3ccccc3)ccc2O1 | inactive: 1.02
15 | C[C@H](CO)N1C[C@H](C)[C@H](CN(C)Cc2ccc(Cl)c(Cl)c2)Oc2ccc(NS(=O)(=O)c3ccccc3)cc2C1=O | inactive: 1.03
16 | CO[C@@H]1CN(C)C(=O)c2cc(NC(=O)c3ccccc3)ccc2OC[C@H](C)N(C(=O)CN(C)C)C[C@@H]1C | inactive: 1.01
17 | C[C@@H]1CN([C@H](C)CO)C(=O)c2cc(N(C)C)ccc2O[C@H]1CN(C)S(=O)(=O)c1ccc(Cl)cc1 | inactive: 1.01
18 | COc1cccc(NC(=O)C[C@H]2CC[C@H]3[C@H](COc4ccc(NC(=O)C5CCOCC5)cc4C(=O)N3C)O2)c1 | inactive: 1.01
19 | COc1cccc(S(=O)(=O)N[C@H]2CC[C@@H](CCn3cc(-c4ccccc4OC)nn3)O[C@@H]2CO)c1 | inactive: 1.01
20 | CCNC(=O)C[C@H]1CC[C@@H](NC(=O)C2CC2)[C@H](CO)O1 | inactive: 1.02
21 | Cc1ccc(-c2nn[nH]n2)n1C | inactive: 0.996

Row | SMILES | relative growth
22 | O=C(N[C@@H]1C=C[C@H](CC(=O)N2CCOCC2)O[C@@H]1CO)c1ccccn1 | inactive: 0.967
23 | COCCNC(=O)C[C@@H]1C[C@H]2c3cc(NC(=O)COC)ccc3O[C@H]2[C@H](CO)O1 | inactive: 0.976
24 | COc1ccc(S(=O)(=O)Nc2ccc3c(c2)C(=O)N([C@@H](C)CO)C[C@@H](C)[C@H](CN(C)C(=O)Nc2ccc4c(c2)OCO4)OCCCC[C@H](C)O3)cc1 | inactive: 1.03
25 | O=C(C[C@@H]1CC[C@@H]2[C@H](COC[C@@H](O)CN2S(=O)(=O)c2cccc(Cl)c2)O1)NCCCN1CCOCC1 | inactive: 1
26 | C[C@H]1CN([C@@H](C)CO)C(=O)c2cc(C#Cc3cccnc3)cnc2O[C@@H]1CN(C)S(=O)(=O)c1ccccc1F | inactive: 1.01
27 | O=C1NCCCc2occc21 | inactive: 0.989
28 | CN(C)CC(=O)N[C@H]1C=C[C@H](CC(=O)NCCN2CCCCC2)O[C@H]1CO | inactive: 0.979
29 | O=C1CC[NH][Zn][O]C(=O)[C@H](Cc2cnc[nH]2)N1 | inactive: 0.988
30 | COCCN1CCO[C@H]2CN(S(=O)(=O)c3cn(C)cn3)CC[C@@H]2C1 | inactive: 1.02
31 | COc1ccc(S(=O)(=O)Nc2ccc3c(c2)C(=O)N([C@@H](C)CO)C[C@@H](C)[C@@H](CN(C)C(=O)Nc2c(C)noc2C)O3)cc1 | inactive: 0.934
32 | COc1ccc(NC(=O)N(C)C[C@@H]2Oc3ncc(C#CC(C)C)cc3C(=O)N([C@@H](C)CO)C[C@H]2C)cc1 | inactive: 1.01
33 | C[C@@H]1CN([C@H](C)CO)C(=O)c2cc(NS(=O)(=O)c3ccccc3)ccc2O[C@@H]1CN(C)Cc1ccc(Cl)c(Cl)c1 | inactive: 0.98
34 | CNC[C@H]1Oc2ccc(NS(=O)(=O)c3cn(C)cn3)cc2C(=O)N([C@H](C)CO)C[C@@H]1C | inactive: 1.01
35 | C[C@@H]1CCCCO[C@@H](CN(C)CC2CCCCC2)[C@H](C)CN([C@@H](C)CO)C(=O)c2cc(NC(=O)Nc3ccc(F)cc3)ccc2O1 | inactive: 0.978
36 | C[C@H](CO)N1C[C@H](C)[C@H](CN(C)C(=O)C2CCCCC2)OCCCC[C@H](C)Oc2ccc(NC(=O)Nc3ccc4c(c3)OCO4)cc2C1=O | inactive: 1.03
37 | C[C@H](CO)N1C[C@H](C)[C@@H](CN(C)S(=O)(=O)c2ccccc2)Oc2ccc(NC(=O)C3CC3)cc2CC1=O | inactive: 1
38 | Cc1ccc(-c2ccc3c(c2)O[C@@H](CN(C)C(=O)Nc2ccc(C(F)(F)F)cc2)[C@H](C)CN([C@H](C)CO)S3(=O)=O)cc1 | inactive: 0.955
39 | C[C@@H]1CCCCO[C@@H](CN(C)C(=O)Nc2ccc3c(c2)OCO3)[C@H](C)CN([C@H](C)CO)C(=O)c2cc(NC(=O)Cc3ccccc3)ccc2O1 | inactive: 1.03
40 | COc1cc(Nc2c(C#N)cnc3cc(OCCCN4CCN(C)CC4)c(OC)cc23)c(Cl)cc1Cl | inactive: 0.945
41 | C[C@@H]1CN([C@H](C)CO)S(=O)(=O)c2ccc(C#CCC3CCCC3)cc2O[C@@H]1CN(C)C(=O)c1cnccn1 | inactive: 1.01
42 | CCC(=O)N[C@H]1CC[C@H](CC(=O)OC)O[C@H]1CO | inactive: 1.01

Row | SMILES | relative growth
43 | CO[C@H]1[C@H](OC)[C@@H](OC)C[C@@H]2C(=O)O[C@@H](C(=O)O)[C@@H]12 | inactive: 0.982
44 | CCOC(=O)c1ccc(NC(=O)N[C@H]2O[C@@H](CO)[C@@H](O)[C@@H](O)[C@@H]2O)cc1 | inactive: 0.896
45 | C[C@@H]1CCCCO[C@@H](CN(C)C(=O)c2ccncc2)[C@@H](C)CN([C@@H](C)CO)C(=O)c2cc(NS(=O)(=O)c3ccc(Cl)cc3)ccc2O1 | inactive: 1
46 | COc1ccc(S(=O)(=O)N[C@@H]2C=C[C@@H](CC(=O)N3CCC(Cc4ccccc4)CC3)O[C@H]2CO)cc1 | inactive: 0.994
47 | CCCN(C)C[C@@H]1OCCCC[C@@H](C)Oc2ccc(NC(=O)Nc3ccc(F)cc3)cc2C(=O)N([C@H](C)CO)C[C@H]1C | inactive: 0.958
48 | C=CC1(C)CC(=O)C2(O)C(C)(O1)C(OC(C)=O)C(O)C1C(C)(C)CCC(O)C12C (configuration not stated) | inactive: 1.24
49 | COc1ccc(S(=O)(=O)N2C[C@@H](O)COC[C@@H]3O[C@H](CC(=O)N[C@@H]4CCN(Cc5ccccc5)C4)CC[C@H]32)cc1 | inactive: 0.982
50 | COc1ccc(S(=O)(=O)Nc2ccc3c(c2)C(=O)N([C@@H](C)CO)C[C@H](C)[C@H](CN(C)C(=O)NC2CCCCC2)OCCCC[C@H](C)O3)cc1 | inactive: 0.993
51 | O=C(O)c1ccnc(C(=O)O)c1 | inactive: 0.969
52 | C[C@H](CO)N1C[C@H](C)[C@H](CN(C)Cc2ccc(Oc3ccccc3)cc2)OCc2ccccc2-c2ccccc2C1=O | inactive: 1.01
53 | CO[C@H]1CN(C)C(=O)c2cc(NC(=O)C3CC3)ccc2OC[C@H](C)N(C(=O)C2CCOCC2)C[C@@H]1C | inactive: 1.01
54 | COc1ccc(S(=O)(=O)N(C)C[C@H]2Oc3c(NS(C)(=O)=O)cccc3C(=O)N([C@H](C)CO)C[C@@H]2C)cc1 | inactive: 1.04
55 | C[C@H]1CCCCO[C@H](CN(C)C(=O)NC2CCCCC2)[C@@H](C)CN([C@@H](C)CO)C(=O)c2cc(NC(=O)Cc3ccccc3)ccc2O1 | inactive: 0.987
56 | C[C@H](CO)N1C[C@H](C)[C@H](CN(C)S(=O)(=O)c2ccc(F)cc2)Oc2ccc(NS(=O)(=O)c3ccccc3)cc2CC1=O | inactive: 1.02
57 | COc1ccc(S(=O)(=O)Nc2cccc3c2O[C@@H](CN(C)CC2CC2)[C@H](C)CN([C@@H](C)CO)C3=O)cc1 | inactive: 0.992
58 | C[C@@H]1CN([C@@H](C)CO)C(=O)CCCn2cc(nn2)CO[C@H]1CN(C)C(=O)Nc1ccnc(N2CCOCC2)c1 | inactive: 0.969
59 | C[C@H]1CN([C@@H](C)CO)C(=O)c2cc(NC(=O)Nc3cccc4ccccc34)ccc2O[C@@H]1CN(C)C(=O)Nc1ccc(C(F)(F)F)cc1 | inactive: 1.02
60 | CCOC(=O)Cc1csc(/C(=N/O)C(N)=O)n1 | inactive: 1.06
61 | C[C@H](CO)N1C[C@H](C)[C@H](CN(C)S(=O)(=O)c2cn(C)cn2)Oc2ccc(NC(=O)NC3CCCCC3)cc2C1=O | inactive: 0.982
62 | O=C(ON1C(=O)CCC1=O)c1ccccc1 | inactive: 0.986
